About 14,000 (4.5%) of roughly 310,000 compounds showed an effect of 50% or more. Effects have a minus sign here. Some of the results follow.
These compounds were tested against human ether-à-go-go-related gene (hERG) potassium channel (human, UniProt Q12809) (assay: primary screen, population patch clamp on CHO cells stably expressing hERG).
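Also: peak tail current of the secondary pulse compared with the same well before compound.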

Chain of human ether-à-go-go-related gene (hERG) potassium channel (Q12809 whole entry, looked up): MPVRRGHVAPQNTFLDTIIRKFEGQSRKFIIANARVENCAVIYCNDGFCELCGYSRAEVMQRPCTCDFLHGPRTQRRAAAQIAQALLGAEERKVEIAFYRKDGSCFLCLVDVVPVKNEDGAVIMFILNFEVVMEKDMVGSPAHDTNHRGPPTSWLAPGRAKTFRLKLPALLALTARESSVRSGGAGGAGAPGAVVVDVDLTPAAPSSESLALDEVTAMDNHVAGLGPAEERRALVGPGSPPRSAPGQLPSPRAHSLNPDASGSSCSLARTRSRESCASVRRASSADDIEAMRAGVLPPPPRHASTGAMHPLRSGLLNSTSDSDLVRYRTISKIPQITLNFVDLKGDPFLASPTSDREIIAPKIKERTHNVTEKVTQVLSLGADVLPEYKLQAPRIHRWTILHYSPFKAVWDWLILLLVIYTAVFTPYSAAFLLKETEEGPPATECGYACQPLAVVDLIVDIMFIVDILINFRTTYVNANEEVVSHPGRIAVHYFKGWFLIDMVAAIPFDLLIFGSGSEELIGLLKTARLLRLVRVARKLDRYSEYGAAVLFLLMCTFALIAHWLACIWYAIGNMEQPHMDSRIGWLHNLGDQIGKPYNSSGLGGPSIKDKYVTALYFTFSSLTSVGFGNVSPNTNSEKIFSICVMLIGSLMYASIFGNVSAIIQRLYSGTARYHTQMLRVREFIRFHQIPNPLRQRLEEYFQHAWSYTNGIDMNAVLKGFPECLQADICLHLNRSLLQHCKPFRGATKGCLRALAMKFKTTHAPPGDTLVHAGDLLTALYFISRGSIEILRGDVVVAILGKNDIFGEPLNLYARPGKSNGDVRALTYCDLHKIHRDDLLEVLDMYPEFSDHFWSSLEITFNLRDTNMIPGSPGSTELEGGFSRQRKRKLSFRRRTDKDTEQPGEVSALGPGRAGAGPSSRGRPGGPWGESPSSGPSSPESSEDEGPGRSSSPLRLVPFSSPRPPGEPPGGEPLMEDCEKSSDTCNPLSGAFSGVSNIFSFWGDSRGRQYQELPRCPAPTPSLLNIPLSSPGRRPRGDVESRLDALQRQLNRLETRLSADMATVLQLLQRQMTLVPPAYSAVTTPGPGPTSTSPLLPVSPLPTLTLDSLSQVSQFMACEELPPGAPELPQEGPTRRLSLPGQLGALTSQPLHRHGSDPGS

With Cc1ccc(Cn2ncc3c(N4CCN(CC#N)CC4)ncnc32)cc1 as the compound, how does the “hERG current change (%, negative = inhibition) at 10uM” value read?
Its value is -6.38%.

Nc1nnn(CC(=O)N/N=C/c2cccc3ccccc23)n1 was tested. Which “hERG current change (%, negative = inhibition) at 10uM” value did it give?
The value was -5.39%.

With CCN(CC)c1ccc(C(=O)O)cc1 as the compound, how does the “hERG current change (%, negative = inhibition) at 10uM” value read?
The value was 7.74%.

For CC(C)C(=O)NC(=S)Nc1ccc(S(=O)(=O)N2CCCC2)cc1, which “hERG current change (%, negative = inhibition) at 10uM” value is on record?
Its value is 8.95%.

Which “hERG current change (%, negative = inhibition) at 10uM” value does the source give for CC1CCC(=NNc2ccc(C(F)(F)F)cc2[N+](=O)[O-])CC1 (stereo not shown) here?
Its value is 15.2%.

Which “hERG current change (%, negative = inhibition) at 10uM” value does the source give for O=C(CCSCc1ccccc1Cl)NC1CCCCC1 here?
The value was 44.9%.

How did the “hERG current change (%, negative = inhibition) at 10uM” value turn out when Cc1ccc(NC(=O)CNC(=O)Cn2cnc3sc(C)c(C)c3c2=O)cc1F was run?
Its value is 3.52%.

For COc1cccc(N2CCN(C(=O)c3ccc(CS(=O)c4ccccc4Cl)o3)CC2)c1 (stereo not shown), which “hERG current change (%, negative = inhibition) at 10uM” value is on record?
Its value is -30.8%.

How did the “hERG current change (%, negative = inhibition) at 10uM” value turn out when Cc1cccc(N(CC(O)CN(C)C)S(=O)(=O)c2ccccc2)c1.Cl (stereo not shown) was run?
Its value is -63%.

Cc1ccc(NC(=O)c2cc(-c3cccs3)nc3ccccc23)nc1 was tested. Which “hERG current change (%, negative = inhibition) at 10uM” value did it give?
Its value is -9.72%.

How did the “hERG current change (%, negative = inhibition) at 10uM” value turn out when COc1cccc(S(=O)(=O)c2nc(C)c3c(n2)CCC3)c1 was run?
The value was -17.3%.

How did the “hERG current change (%, negative = inhibition) at 10uM” value turn out when CCOC(=O)N1CCc2c(sc(NC(=O)CN(CC)CC)c2C#N)C1 was run?
Its value is -9.82%.

With COc1ccccc1CNC(=O)c1ccc(Br)o1 as the compound, how does the “hERG current change (%, negative = inhibition) at 10uM” value read?
Its value is 3.48%.

Cc1cc(O)cc(=O)n1CCc1ccccc1 was tested. Which “hERG current change (%, negative = inhibition) at 10uM” value did it give?
Its value is 15.7%.

Which “hERG current change (%, negative = inhibition) at 10uM” value does the source give for Cn1cc(C(=O)C(=O)N2CCOCC2)c2ccccc21 here?
Its value is 4.36%.

CCc1ccccc1Nc1nc(N)nc(CSc2nnc3ccccn23)n1 was tested. Which “hERG current change (%, negative = inhibition) at 10uM” value did it give?
The value was 18.7%.

With CN1C(C(=O)Nc2ccc(OC(F)(F)F)cc2)=CC(c2ccc3c(c2)OCO3)=NS1(=O)=O as the compound, how does the “hERG current change (%, negative = inhibition) at 10uM” value read?
The value was 15.2%.

With O=C(O)CCC(=O)CCC(=O)c1ccc(Cl)cc1 as the compound, how does the “hERG current change (%, negative = inhibition) at 10uM” value read?
The value was 7.33%.

With COCc1ccc(C(=O)NC2CC(C)(C)Cc3c2cnn3-c2ccc(C)cc2)o1 (stereo not shown) as the compound, how does the “hERG current change (%, negative = inhibition) at 10uM” value read?
Its value is -39.3%.

Which “hERG current change (%, negative = inhibition) at 10uM” value does the source give for COC(=O)C1CN(C(=O)COc2ccc(C)c(C)c2)c2ccccc2O1 (stereo not shown) here?
The value was -27.9%.

With O=C(c1cc(-c2ccco2)on1)N1CCc2ccccc2C1 as the compound, how does the “hERG current change (%, negative = inhibition) at 10uM” value read?
The value was -3.8%.

For CCN(CC)S(=O)(=O)c1ccc(N2CCCC2)c(NC(=O)CC(C)(C)C)c1, which “hERG current change (%, negative = inhibition) at 10uM” value is on record?
The value was -2.34%.

How did the “hERG current change (%, negative = inhibition) at 10uM” value turn out when CC1CCc2cccc3c2N1c1cc(C#N)c(C#N)cc1O3 (stereo not shown) was run?
Its value is 5.08%.

O=C(Nc1ccc(S(=O)(=O)Nc2ccccn2)cc1)C(F)(F)F was tested. Which “hERG current change (%, negative = inhibition) at 10uM” value did it give?
Its value is -1.48%.

With CCc1nc2ccc(C(=O)Nc3ccc(NC(C)=O)cc3)cc2nc1CC as the compound, how does the “hERG current change (%, negative = inhibition) at 10uM” value read?
The value was 14.2%.

Which “hERG current change (%, negative = inhibition) at 10uM” value does the source give for S=C(Nc1cccc(Cl)c1)Nc1ccc2c(c1)OCCO2 here?
The value was 15.7%.

COCCNC(=O)C1CCCN(S(=O)(=O)c2c(C)noc2/C=C/c2cccs2)C1 (stereo not shown) was tested. Which “hERG current change (%, negative = inhibition) at 10uM” value did it give?
Its value is -20.7%.

CC(=O)c1ccc(OC(=O)c2cc3ccccc3oc2=O)cc1 was tested. Which “hERG current change (%, negative = inhibition) at 10uM” value did it give?
Its value is 12.8%.

CC(C)C(=O)Nc1nnc(SCC(=O)NC2CC2)s1 was tested. Which “hERG current change (%, negative = inhibition) at 10uM” value did it give?
The value was 12.8%.

O=S(=O)(c1cccs1)N1CN(Cc2ccccc2)c2nc3ccccc3nc21 was tested. Which “hERG current change (%, negative = inhibition) at 10uM” value did it give?
The value was -25.8%.

For CCN(CC)C(=O)Cn1cc(S(=O)(=O)CC(=O)Nc2cc(C)on2)c2ccccc21, which “hERG current change (%, negative = inhibition) at 10uM” value is on record?
The value was -5.7%.

How did the “hERG current change (%, negative = inhibition) at 10uM” value turn out when CN1/C(=C/C(=O)c2cccs2)Sc2ccccc21 was run?
The value was 10.2%.

With O=C(COC(=O)Cc1cccs1)Nc1ccccc1F as the compound, how does the “hERG current change (%, negative = inhibition) at 10uM” value read?
The value was -4.79%.

Which “hERG current change (%, negative = inhibition) at 10uM” value does the source give for Cc1nc([N+](=O)[O-])cn1Cc1cccc2ccccc12 here?
Its value is 10.2%.

Which “hERG current change (%, negative = inhibition) at 10uM” value does the source give for Cc1ccn2cc(-c3cccc([N+](=O)[O-])c3)nc2c1 here?
Its value is 2.66%.

With Cc1ccc(C(=O)NCCNc2ccc([N+](=O)[O-])cc2C(F)(F)F)cc1 as the compound, how does the “hERG current change (%, negative = inhibition) at 10uM” value read?
The value was -3.5%.

How did the “hERG current change (%, negative = inhibition) at 10uM” value turn out when O=c1c2ccccc2cnn1CCOc1cccc(Br)c1 was run?
Its value is 20.5%.

Cc1cc([N+](=O)[O-])ccc1NCc1cccc([N+](=O)[O-])c1 was tested. Which “hERG current change (%, negative = inhibition) at 10uM” value did it give?
The value was -48.1%.

COc1cc(C(=O)NCC(=O)N/N=C(C)\C=C\c2ccccc2)cc(OC)c1OC was tested. Which “hERG current change (%, negative = inhibition) at 10uM” value did it give?
The value was 10.5%.

Which “hERG current change (%, negative = inhibition) at 10uM” value does the source give for CN(C)S(=O)(=O)c1cccc(NC(=O)c2cc3c(=O)n4ccccc4nc3s2)c1 here?
Its value is 11.4%.

Which “hERG current change (%, negative = inhibition) at 10uM” value does the source give for COc1cc2c(cc1Cl)/C(=C\CCN(C)C)c1ccccc1S2.O=S(=O)(O)O here?
The value was -35.4%.

O=C(O)c1ccc(O)c(N2C(=O)Nc3ccccc3N2O)c1 was tested. Which “hERG current change (%, negative = inhibition) at 10uM” value did it give?
Its value is 14.6%.

CC1CCCN(C(=O)CNS(=O)(=O)c2cccs2)C1 (stereo not shown) was tested. Which “hERG current change (%, negative = inhibition) at 10uM” value did it give?
Its value is -2.13%.

For CC1CN(C(=O)CCNC(=O)c2ccc(Cl)cc2)CC(C)O1 (stereo not shown), which “hERG current change (%, negative = inhibition) at 10uM” value is on record?
Its value is 7.6%.

With O=S1(=O)N=C(Nc2nncs2)c2ccccc21 as the compound, how does the “hERG current change (%, negative = inhibition) at 10uM” value read?
The value was 18.6%.

Which “hERG current change (%, negative = inhibition) at 10uM” value does the source give for CCN(CC(=O)O)S(=O)(=O)c1cc(Cl)ccc1Cl here?
Its value is 10.1%.

How did the “hERG current change (%, negative = inhibition) at 10uM” value turn out when O=C(CCN1CCN(CCO)CC1)Nc1ccccc1.O=C(O)C(=O)O was run?
The value was 13.1%.

How did the “hERG current change (%, negative = inhibition) at 10uM” value turn out when Cc1nnc2sc(-c3cccc4ccccc34)nn12 was run?
Its value is -19.9%.

For O=C(NCC(O)CN1CCOCC1)c1ccc([N+](=O)[O-])cc1 (stereo not shown), which “hERG current change (%, negative = inhibition) at 10uM” value is on record?
Its value is -4.31%.

With Cc1ccc(-c2cc(=O)[nH]c3ccccc23)cc1 as the compound, how does the “hERG current change (%, negative = inhibition) at 10uM” value read?
Its value is -9.82%.

For FC(F)(F)c1cccc(Cn2nnnc2-c2cccc(C(F)(F)F)c2)c1, which “hERG current change (%, negative = inhibition) at 10uM” value is on record?
Its value is -18%.

CC(C)CNC(=O)c1ccccc1SCC(=O)NC12CC3CC(CC(C3)C1)C2 was tested. Which “hERG current change (%, negative = inhibition) at 10uM” value did it give?
The value was -5.62%.

O=C(NC(Cc1ccccc1)C(=O)O)/C(=C/c1ccccc1)NC(=O)c1cccc(Br)c1 (stereo not shown) was tested. Which “hERG current change (%, negative = inhibition) at 10uM” value did it give?
The value was 13.5%.

For CCN(C(=O)COC(=O)c1cc(-c2ccccc2)nc2c1c(C)nn2-c1ccc(C)cc1)C1CCS(=O)(=O)C1 (stereo not shown), which “hERG current change (%, negative = inhibition) at 10uM” value is on record?
Its value is -0.38%.

With CSc1nc2ccc(NC(=O)c3ccc(F)c(F)c3)cc2s1 as the compound, how does the “hERG current change (%, negative = inhibition) at 10uM” value read?
Its value is 12.2%.

For O=C1c2cccnc2C(O)N1C1CCCCC1 (stereo not shown), which “hERG current change (%, negative = inhibition) at 10uM” value is on record?
Its value is 6.12%.

How did the “hERG current change (%, negative = inhibition) at 10uM” value turn out when CN(C)CCN(C)Cc1c2ccccc2c(CN(C)CCN(C)C)c2ccccc12 was run?
The value was 0.802%.

COc1ccc(OCC(=O)NNC(=O)c2cccc(O)c2)cc1 was tested. Which “hERG current change (%, negative = inhibition) at 10uM” value did it give?
Its value is 14.2%.
